Measured values taken from the supplement of paper PMC9446081.
The campaign covered roughly 39,000 compounds. About 220 (0.56%) showed activity. The list shows a part of the results.

Test system: Escherichia coli K-12 BW25113
Test: relative growth (OD600 normalised to plate interquartile mean) (fraction); higher = less growth inhibition, active = 0.2 or less
Details: 50 µM; LB; incubation time: overnight (16-24 h)
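Also: static incubation at 37 °C against the wild-type strain, values averaged over two biological replicates.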

SMILES | relative growth
C[C@@H]1CN([C@@H](C)CO)C(=O)Cc2cc(NS(=O)(=O)c3ccc(F)cc3)ccc2O[C@@H]1CN(C)S(=O)(=O)c1cn(C)cn1 | inactive: 0.951
C[C@@H]1CN([C@@H](C)CO)C(=O)c2cc(NC(=O)Cn3cnnn3)ccc2O[C@@H]1CN(C)S(C)(=O)=O | inactive: 0.98
COCC#Cc1ccc2c(c1)O[C@@H](CN(C)C(=O)c1ccccc1F)[C@H](C)CN([C@H](C)CO)S2(=O)=O | inactive: 0.998
NCC[C@@H]1CC[C@@H](NC(=O)C2CCCC2)[C@H](CO)O1 | inactive: 0.981
C[C@H](CO)N1C[C@H](C)[C@H](CN(C)C(=O)NC2CCCCC2)OCCCC[C@H](C)Oc2ccc(NS(=O)(=O)c3cccs3)cc2C1=O | inactive: 1.01
C[C@H](CO)N1C[C@H](C)[C@@H](CN(C)C(=O)c2cccnc2)Oc2ncc(-c3ccc(C(=O)N(C)C)cc3)cc2C1=O | inactive: 0.996
CC(C)NC(=O)Nc1cccc2c1O[C@H](CN(C)Cc1ccc(-c3ccccc3)cc1)[C@H](C)CN([C@@H](C)CO)C2=O | inactive: 1
COc1ccc(NC(=O)N(C)C[C@H]2OCCCC[C@@H](C)Oc3ccc(NC(=O)Nc4ccccc4)cc3C(=O)N([C@H](C)CO)C[C@@H]2C)cc1 | inactive: 1
O=C(NCCNS(=O)(=O)c1cccc2nonc12)[C@H]1COc2ccccc2O1 | inactive: 0.966
COc1cccc(S(=O)(=O)Nc2ccc3c(c2)C(=O)N(C)C[C@@H](OC)[C@H](C)CN(C(=O)Cc2cccnc2)[C@@H](C)CO3)c1 | inactive: 0.996
COc1ccc(NC(=O)Nc2cccc3c2O[C@H](CN(C)C(=O)Nc2cccc4ccccc24)[C@H](C)CN([C@@H](C)CO)C3=O)cc1 | inactive: 1.02
COc1ccc(S(=O)(=O)N(C)C[C@@H]2Oc3c(NC(=O)Nc4c(C)noc4C)cccc3C(=O)N([C@@H](C)CO)C[C@H]2C)cc1 | inactive: 0.988
O=C(NO)c1cccc(C(=O)N/N=C/[C@H](O)[C@@H](O)[C@@H](O)[C@H](O)C(=O)O)c1 | inactive: 0.992
O=C(C[C@@H]1C[C@H]2c3cc(NC(=O)Nc4ccc(C(F)(F)F)cc4)ccc3O[C@H]2[C@H](CO)O1)NCc1cc(F)ccc1F | inactive: 0.98
CN1CCN(C(=O)C[C@H]2CC[C@@H]3[C@H](COC[C@@H](O)CN3C(=O)C3CC3)O2)CC1 | inactive: 1
Cc1snnc1-c1ccccc1 | inactive: 1.03
O=S1(=O)CC=CC1 | inactive: 1.02
COc1ccc(S(=O)(=O)Nc2cccc3c2O[C@H](CN(C)S(=O)(=O)c2ccc(F)cc2)[C@@H](C)CN([C@H](C)CO)C3=O)cc1 | inactive: 0.978
N#C[C@H]1NCc2cnnn2Cc2ccccc21 | inactive: 0.971
C[C@@H]1CCCCO[C@@H](CN(C)C(=O)Nc2ccc(F)cc2)[C@@H](C)CN([C@H](C)CO)C(=O)c2cc(NC(=O)Nc3ccc(F)cc3)ccc2O1 | inactive: 0.979

SMILES | relative growth
Cc1noc(C)c1S(=O)(=O)Nc1ccc2c(c1)C(=O)N([C@H](C)CO)C[C@H](C)[C@@H](CN(C)C)OCCCC[C@H](C)O2 | inactive: 0.985
C[C@H]1CCCCO[C@H](CN(C)Cc2ccc(C(F)(F)F)cc2)[C@@H](C)CN([C@@H](C)CO)C(=O)c2cc(NS(=O)(=O)c3cn(C)cn3)ccc2O1 | inactive: 1.04
CN(C)c1ncnc2c1ncn2[C@H]1O[C@@H](CO)[C@@H](N)[C@@H]1O | inactive: 0.969
C[C@H]1CN([C@@H](C)CO)C(=O)CCCn2nncc2CO[C@H]1CN(C)S(=O)(=O)c1ccccc1C#N | inactive: 0.986
Cc1noc(C)c1S(=O)(=O)N(C)C[C@@H]1Oc2c(NC(=O)C3CC3)cccc2C(=O)N([C@@H](C)CO)C[C@@H]1C | inactive: 1.02
C[C@@H]1CCCCO[C@@H](CN(C)C(=O)Nc2ccc(C(F)(F)F)cc2)[C@H](C)CN([C@@H](C)CO)C(=O)c2cc(NC(=O)Nc3ccc(C(F)(F)F)cc3)ccc2O1 | inactive: 0.988
N#Cc1ccc(-c2ccccc2F)o1 | inactive: 0.928
C[C@@H]1CN([C@@H](C)CO)C(=O)c2cc(NC(=O)Nc3ccc(F)cc3)ccc2O[C@@H]1CN(C)Cc1ccc(Cl)c(Cl)c1 | inactive: 1.02
COc1cccc(NC(=O)C[C@@H]2CC[C@@H]3[C@H](COc4ccc(NC(=O)C5CCOCC5)cc4C(=O)N3C)O2)c1 | inactive: 1.01
CC1OC(OC2C(CO)OC(OC3C(CO)OC(O)C(O)C3O)C(O)C2O)C(O)C(O)C1NC1C=C(CO)C(O)C(O)C1O (stereo not drawn) | inactive: 1.01
COc1cc2c(cc1OC)-c1onc(-c3ccc(OCCO[Si](C(C)C)(C(C)C)C(C)C)cc3)c1CCCN(C[C@@H](C)OC(=O)NCCCCCC(=O)NO)CC2 | inactive: 0.981
Cc1noc(C)c1S(=O)(=O)Nc1ccc2c(c1)CC(=O)N([C@H](C)CO)C[C@@H](C)[C@@H](CN(C)Cc1ccc(Oc3ccccc3)cc1)O2 | inactive: 0.987
COc1ccc(C(=O)Nc2ccc3c(c2)C(=O)N(C)[C@@H]2CC[C@@H](CC(=O)NCC4CC4)O[C@@H]2CO3)cc1 | inactive: 1.02
CC(C)(C)OC(=O)C[C@H]1CC=CC[C@H](CC(=O)NCCO)C(=O)N[C@H](Cc2ccccc2)COC1=O | inactive: 1.01
Cn1ccc(C(=O)O)cc1=O | inactive: 0.989
C[C@@H]1CN([C@H](C)CO)C(=O)c2cc(NC(=O)CCCN(C)C)ccc2O[C@@H]1CN(C)C(=O)Nc1ccccc1 | inactive: 0.996
C[C@@H]1CN([C@@H](C)CO)C(=O)c2cccc(NC(=O)c3nc4ccccc4s3)c2O[C@H]1CN(C)S(C)(=O)=O | inactive: 1.01
O=C(C[C@H]1C[C@H]2c3cc(NS(=O)(=O)c4ccccc4)ccc3O[C@H]2[C@@H](CO)O1)NC1CCCCC1 | inactive: 1.02
CC(C)NC(=O)N(C)C[C@@H]1Oc2c(NS(=O)(=O)c3ccc(F)cc3)cccc2C(=O)N([C@H](C)CO)C[C@@H]1C | inactive: 1.02
C[C@H]1CN([C@@H](C)CO)C(=O)c2c(c3ccccc3n2C)-c2ccccc2CO[C@H]1CN(C)Cc1cccc(C(=O)O)c1 | inactive: 0.987

SMILES | relative growth
COC(=O)C1=C2CC[C@H](COC(=O)NCCCCCC(=O)NO)NC(=O)N[C@H](Cc3ccccc3)c3cn(nn3)C[C@@H](Cc3ccccc3)NC(=O)c3oc(c(C(=O)OC)c3C(=O)OC)CC[C@H](COC(=O)NCCCCCC(=O)NO)NC(=O)N[C@H](Cc3ccccc3)c3cn(nn3)C[C@@H](Cc3ccccc3)NC(=O)C(=C1C(=O)OC)O2 | inactive: 0.978
C[C@H](O)[C@H](O)[C@@H](O)[C@@H](O)/C=N/NC(=O)CCCCC(=O)NO | inactive: 0.985
C[C@@H]1CN([C@@H](C)CO)C(=O)c2cc(NS(=O)(=O)c3cccs3)ccc2O[C@@H](C)CCCCO[C@H]1CN(C)CC1CCCCC1 | inactive: 1.01
COc1ccc(CN(C)C[C@@H]2Oc3ccc(NS(C)(=O)=O)cc3C(=O)N([C@@H](C)CO)C[C@@H]2C)cc1 | inactive: 0.985
CCN(CC)CCNC(=O)c1c(C)[nH]c(/C=C2/C(=O)Nc3ccc(-c4csc(-c5ccccc5)n4)cc32)c1C | inactive: 0.963
CC(C)(CO)[C@@H](O)C(=O)NCCC(=O)NCCSSCCNC(=O)CCNC(=O)[C@H](O)C(C)(C)CO | inactive: 0.976
C[C@@H]1CN([C@H](C)CO)C(=O)c2cc(NC(=O)c3ccncc3)ccc2O[C@@H]1CN(C)S(=O)(=O)c1cccs1 | inactive: 0.99
C[C@@H]1CN([C@H](C)CO)C(=O)c2cc(NC(=O)Nc3ccc(C(F)(F)F)cc3)ccc2O[C@@H](C)CCCCO[C@H]1CN(C)S(C)(=O)=O | inactive: 1.01
C[C@@H]1CCCCO[C@@H](CN(C)S(=O)(=O)c2ccc(F)cc2)[C@@H](C)CN([C@@H](C)CO)C(=O)c2cc(NC(=O)Nc3cccc4ccccc34)ccc2O1 | inactive: 1.02
C[C@H]1CN([C@@H](C)CO)C(=O)c2cccc(NC(=O)c3cnccn3)c2O[C@@H]1CN(C)S(=O)(=O)c1ccccc1 | inactive: 0.981
Cc1noc(C)c1NC(=O)Nc1ccc2c(c1)C(=O)N([C@H](C)CO)C[C@@H](C)[C@@H](CN(C)Cc1ccc(C(=O)O)cc1)OCCCC[C@H](C)O2 | inactive: 0.988
C[C@H]1CN([C@@H](C)CO)C(=O)Cc2cc(NC(=O)CCN3CCOCC3)ccc2O[C@H]1CN(C)S(=O)(=O)c1ccc(F)cc1 | inactive: 1.01
COCCOC(=O)N1C(=O)[C@@]2(c3cc(C#Cc4ccc(OC)cc4)ccc31)[C@H](c1ccccc1OCCO)N1[C@H](c3ccccc3)[C@H](c3ccccc3)OC(=O)[C@H]1[C@@H]2C(=O)NC[C@H](O)c1ccccc1 | inactive: 1.09
C[C@@H]1CN([C@H](C)CO)C(=O)c2cc(NC(=O)Nc3ccc(F)cc3)ccc2O[C@@H]1CN(C)Cc1ccc(C(=O)Nc2ccccc2N)cc1 | inactive: 0.981
C[C@H]1CN([C@@H](C)CO)C(=O)c2cc(C#CCN(C)C)cnc2O[C@@H]1CN(C)C(=O)Nc1cc(F)ccc1F | inactive: 1.01
CC(=O)NC[C@H]1CN(c2ccc(N3CCN(C(=O)CO)CC3)c(F)c2)C(=O)O1 | inactive: 0.38
CC(C)NC(=O)N(C)C[C@H]1OCCCC[C@@H](C)Oc2ccc(NC(=O)C3CCCCC3)cc2C(=O)N([C@H](C)CO)C[C@H]1C | inactive: 1
Cc1ccc(S(=O)(=O)N(C)C[C@H]2OCCCC[C@H](C)Oc3ccc(NC(=O)Nc4cccc5ccccc45)cc3C(=O)N([C@H](C)CO)C[C@H]2C)cc1 | inactive: 1.04
